# The whole screen tested about 310,000 compounds, of which about 2,200 (0.71%) showed an effect of 50% or more. Effects have a minus sign here. The list shows a part of the results.
# Molecular target: human ether-à-go-go-related gene (hERG) potassium channel (human, UniProt Q12809)
# Experiment: primary screen, population patch clamp on CHO cells stably expressing hERG
# human ether-à-go-go-related gene (hERG) potassium channel, sequence (Q12809 whole entry, looked up): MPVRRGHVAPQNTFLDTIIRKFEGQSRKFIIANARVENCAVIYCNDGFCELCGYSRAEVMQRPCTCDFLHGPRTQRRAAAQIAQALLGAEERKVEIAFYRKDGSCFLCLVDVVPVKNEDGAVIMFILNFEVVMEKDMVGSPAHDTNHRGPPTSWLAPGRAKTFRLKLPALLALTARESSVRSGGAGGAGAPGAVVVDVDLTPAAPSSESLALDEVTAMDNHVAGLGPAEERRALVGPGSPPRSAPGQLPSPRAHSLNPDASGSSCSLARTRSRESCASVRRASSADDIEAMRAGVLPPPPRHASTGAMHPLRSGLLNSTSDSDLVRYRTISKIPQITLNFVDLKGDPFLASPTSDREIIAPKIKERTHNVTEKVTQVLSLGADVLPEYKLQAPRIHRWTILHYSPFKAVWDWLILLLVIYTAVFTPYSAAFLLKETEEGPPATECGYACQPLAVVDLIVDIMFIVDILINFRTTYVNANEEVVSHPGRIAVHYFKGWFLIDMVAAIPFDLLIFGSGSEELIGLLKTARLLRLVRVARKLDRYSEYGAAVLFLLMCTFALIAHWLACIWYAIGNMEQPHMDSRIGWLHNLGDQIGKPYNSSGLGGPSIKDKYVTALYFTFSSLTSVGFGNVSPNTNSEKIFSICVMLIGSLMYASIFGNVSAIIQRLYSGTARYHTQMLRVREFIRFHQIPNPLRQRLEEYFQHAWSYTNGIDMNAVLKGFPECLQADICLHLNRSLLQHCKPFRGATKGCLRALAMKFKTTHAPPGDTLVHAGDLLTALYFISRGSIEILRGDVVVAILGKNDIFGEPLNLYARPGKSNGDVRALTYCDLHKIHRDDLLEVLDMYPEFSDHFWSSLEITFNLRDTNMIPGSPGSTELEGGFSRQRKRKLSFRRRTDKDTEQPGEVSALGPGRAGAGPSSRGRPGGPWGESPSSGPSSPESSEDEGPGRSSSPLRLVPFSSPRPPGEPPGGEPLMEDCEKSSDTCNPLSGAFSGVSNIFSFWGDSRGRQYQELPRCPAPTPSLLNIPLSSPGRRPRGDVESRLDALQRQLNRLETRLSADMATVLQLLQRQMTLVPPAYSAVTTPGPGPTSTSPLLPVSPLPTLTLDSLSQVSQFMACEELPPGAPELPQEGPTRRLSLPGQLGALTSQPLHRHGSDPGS
row,Structure (SMILES),"hERG current change (%, negative = inhibition) at 1uM"
1,CC(C)NC(=O)COC(=O)c1cc(=O)[nH]c2ccccc12,9.93%
2,CC(=O)c1cccc(NC(=O)CCc2nnc3ccc(NCc4ccco4)nn23)c1,17.4%
3,O=C(CSCc1ccc(Cl)cc1)NCCSCc1ccco1,7.86%
4,Cc1cccc(OCC(=O)N/N=C/c2cc([N+](=O)[O-])ccc2N2CCOCC2)c1,-1.6%
5,Cc1c(C(=O)N2CCCCC2)sc(NC(=O)C23CC4CC(CC(C4)C2)C3)c1C#N,5.06%
6,Cc1cc(C)cc(NC(=O)COC(=O)CN=C2NS(=O)(=O)c3ccccc32)c1,14.4%
7,Cc1c(C(=O)N2CCCCC2)c(S(=O)(=O)N2CCc3ccccc32)c(C)n1C,14.7%
8,CC1(C)CC(=O)C(CC(=O)Nc2ccc(S(N)(=O)=O)cc2)=C(O)C1,5.31%
9,CN(C)C(=O)N1CCN(C(=O)N(C)C)CC1,12.3%
10,CC(C)(C)c1cc2ncnc(N3CCCCC3)c2s1,14.6%
11,COc1ccc2ccccc2c1C1CC(=O)N2CN(Cc3ccco3)CSC2=C1C#N (stereo not drawn),14.1%
12,Cc1ccc(S(=O)(=O)N(C)CC(=O)OCC(=O)N2CC(=O)Nc3ccccc32)cc1,7.82%
13,COc1ccc(C(=O)C2CCCN(Cc3c[nH]c4ccccc34)C2)c(OC)c1 (stereo not drawn),-58.8%
14,C=CCn1c(SCC(=O)c2ccc(O)c(O)c2)nnc1-c1cccc(C)c1,3.5%
15,CCOn1c(=O)c(-c2ccc(Cl)cc2)[n+]([O-])c2ccccc21,14.2%
16,OCC1CCN(Cc2nc(Cc3ccccc3Cl)no2)CC1,12.1%
17,COc1cccc(N(C(=O)c2ccco2)C(C(=O)NC2CCCC2)c2ccc(N(C)C)cc2)c1 (stereo not drawn),14.2%
18,COc1cccc(CNc2cc(C)ccn2)c1O,9.35%
19,Cc1cc(=O)[nH]c(SCCCOc2ccc3c(c2)CCC3)n1,3.45%
20,CCOc1ccc(N2CC(C(=O)Nc3nnc(Cc4ccc(OC)c(OC)c4)s3)CC2=O)cc1 (stereo not drawn),0.249%
21,COc1ccc(CCN(Cc2nc(-c3ccccc3)no2)Cc2nc(-c3ccccc3)no2)cc1OC,-5.19%
22,CC1CN(C(=S)Nc2ccc(Cl)cc2)CC(C)O1 (stereo not drawn),16.9%

row,Structure (SMILES),"hERG current change (%, negative = inhibition) at 1uM"
1,COc1cccc(CN(C)Cc2cc(=O)oc3cc(O)c(Cl)cc23)c1.O=C(O)C(=O)O,11.4%
2,COC(=O)c1ccc(COc2ccccc2/C=C(\C#N)C(=O)Nc2c(C)cc(C)cc2C)cc1,15%
3,Cc1nc2scc(-c3ccco3)c2c(=O)n1/N=C/N(C)C,5.8%
4,Cc1cc(C)cc(NC(=S)NCc2ccc3c(c2)OCO3)c1,7.12%
5,CN1C(c2ccc(F)cc2)=CS/C1=C(\C#N)c1nnc2n1-c1ccccc1SC2,-6.05%
6,Cc1cc(NC(=NC2CC2)c2ccccc2)n(-c2ccccc2)n1,9.3%
7,COc1ccccc1CNC(=O)c1ccccc1C(=O)NC(CC(C)C)C(=O)NCc1ccccc1OC (stereo not drawn),12.1%
8,Cc1cccc(-c2c3c(=O)n(C)c(=O)n(C)c3cn2CCO)c1,3.7%
9,Cc1ccc(NC(=O)CN(C)C(=O)Nc2ccc(C)cc2)cc1,14.7%
10,CN(C)c1ccc(/C=N/n2c(C3CCCCC3)n[nH]c2=S)cc1,15.7%
11,CC(=O)/C(CN1CCCCC1)=N\O.Cl,12.6%
12,CC(C)CN(CC(C)C)C(=O)Nc1ccccc1F,5.73%
13,COc1ccc(NC(=S)N(CCCN2CCCC2)Cc2cccs2)cc1,-7.06%
14,O=C(CCN1C(=O)/C(=C/c2ccccc2Cl)SC1=S)NC1C=CS(=O)(=O)C1 (stereo not drawn),14%
15,COc1ccccc1CCn1cnc2c3cc(C)ccc3n(C)c2c1=O,10.5%
16,CCCSc1nnc(-c2ccccc2NC(=O)CC)c(=O)[nH]1,4.33%
17,O=C(CN1CCN(Cc2ccccc2)CC1)NNC(=O)c1ccccc1,9.08%
18,COc1cccc(C(=O)NCCn2ccc3ccccc32)c1,18.3%
19,CCOc1cc(/C=N/NC(=O)c2ccncc2)cc(Cl)c1OS(C)(=O)=O,3.53%
20,Cl.O=S(=O)(c1ccc2nc(COc3ccccc3)[nH]c2c1)N1CCOCC1,5.33%
21,O=C(COC(=O)CC1CC2CCC1C2)Nc1cccc(S(=O)(=O)NC2=NCCCCC2)c1 (stereo not drawn),3.77%
22,C/C(=N\NC(=O)CNc1cccc2ccccc12)c1ccccc1,12.2%

row,Structure (SMILES),"hERG current change (%, negative = inhibition) at 1uM"
1,Cn1cc(/C=N/n2cnc3scc(-c4ccccc4)c3c2=O)c2ccccc21,3.02%
2,COc1ccc2c(C)nc(Nc3nc(C)cc(C)n3)nc2c1,7.06%
3,CC1=CC(=C2C(=O)NC(=O)NC2=O)C=C(C(F)(F)F)N1C(C)C,-11.7%
4,CCSc1ccccc1C(=O)Nc1cccc(OC)c1,5.26%
5,Cc1ccc(C)c(-c2nnc(OCC(=O)Nc3cc(C)on3)c3ccccc23)c1,1.7%
6,CCCOc1ccc(N2C(=O)CC(N3CCC(c4nncn4CC)CC3)C2=O)cc1 (stereo not drawn),5.38%
7,Cc1sc2ncnc(N3CCC(C(=O)Nc4ccc(Br)cc4Br)CC3)c2c1C,7.67%
8,CCc1nnc(NC(=O)CSc2nnc3c4ccccc4n(C)c3n2)s1,15.5%
9,Cc1ccc(S(=O)(=O)n2c([N+](=O)[O-])cnc2C)c(C)c1C,28.4%
10,CNC(=S)NNC(=O)COc1ccc(C)c(C)c1,4.61%
11,COc1ccccc1N1CCN(C(=O)CCCNC(=O)Cn2cnc3sc(C)c(C)c3c2=O)CC1,12.1%
12,COc1cc([N+](=O)[O-])ccc1NC(=O)CCCOc1cccc(C)c1C,1.26%
13,Cc1cccc(-c2noc(CCC(=O)NCc3ccco3)n2)c1,0.384%
14,C/C(=N\NC(=O)c1c(Cl)c(C)nn1C)c1cccc(NC(=O)COc2ccccc2)c1,11%
15,O=C(CC1SC(N2CCOCC2)=NC1=O)Nc1ccccc1Cl (stereo not drawn),18.5%
16,COc1cc(C(C)=O)ccc1COc1ccc(C(=O)OC(C)C(=O)NC(N)=O)cc1OC (stereo not drawn),4.72%
17,[O-]/[N+](=C/c1ccccc1)c1ccccc1,9.93%
18,CN(Cc1c(C(=O)N/N=C/c2ccc(O)cc2)nnn1-c1nonc1N)c1ccccc1,15.5%
19,O=C(O)c1ccc(CSc2nnc(-c3ccccc3Br)o2)cc1,13.5%
20,COc1cccc(C(=S)N2CCCC2)c1OC,10.8%
21,Cc1cc(C)n(CCN(C)C(=O)CCc2nnc(CCC3CCCCC3)o2)n1,3.53%
22,CC1(C)Oc2ccc(C(=O)NC3CCCC3)cc2N(CC(=O)NC2CCCCC2)C1=O,12%

row,Structure (SMILES),"hERG current change (%, negative = inhibition) at 1uM"
1,COc1cccc(C(C(=O)NC2CCCCC2)N(C(=O)c2ccco2)c2ccccc2OC)c1 (stereo not drawn),-2.11%
2,Cn1nc(-c2ccccc2)c(C(O)c2ccccc2C(F)(F)F)c1Cl (stereo not drawn),16.1%
3,O=C(O)COc1ccccc1-c1ccccc1,14.5%
4,C=C[C@@H]1c2cc(C)ccc2N(S(=O)(=O)c2ccc(C)cc2)[C@H](c2ccc(OC(C)=O)cc2)C1(C#N)C#N,13.1%
5,O=C(Cc1ccccc1)Nc1ccc(-c2nnc(-c3ccco3)o2)cc1,-1.72%
6,N#Cc1cccnc1N1CCN(C(=O)c2cccc3c2C(=O)c2ccc(Cl)cc2S3(=O)=O)CC1,1.64%
7,Cc1ccc(S(=O)(=O)Nc2cc3c(C(=O)Nc4ccccc4)c(C)oc3c3ccccc23)cc1,8.66%
8,Cc1ccc(OCC(=O)Nc2ccccc2[N+](=O)[O-])c(Br)c1,20.9%
9,CCOC(=O)C(C(=O)OCC)C(C#N)c1ccccc1 (stereo not drawn),6.84%
10,Cc1ccc(Nc2nnc(C(C)(C)C)c(=O)n2N)cc1,2.86%
11,COc1cc2[nH]c(=S)nc(NC3CCCCCC3)c2cc1OC,22.2%
12,CC(C)OC(=O)c1c(NC(=O)c2ccco2)sc2c1CCCC2,4.04%
13,Cn1cc(CNCC2CCCO2)c(-c2ccc(Oc3ccccc3)cc2)n1 (stereo not drawn),9.67%
14,Cc1cccc(NC(=O)C2(C)CC3c4ccccc4C2c2ccccc23)c1 (stereo not drawn),10.3%
15,COC(=O)Cc1c(C)c2ccc(OC(=O)c3ccccc3)cc2oc1=O,-4.1%
16,COc1cc(/C=C2\SC(=Nc3ccccc3)N(Cc3ccco3)C2=O)ccc1OC(C)C(=O)O (stereo not drawn),10.7%
17,COC(=O)c1cc2sc(Cl)cc2n1CC(=O)NCC1CCCO1 (stereo not drawn),12.1%
18,Cc1c(NC(=O)CSc2ccccn2)c(=O)n(-c2ccccc2)n1C,8.52%
19,CCc1ccc(S(=O)(=O)Nc2cc3c(cc2N2CCCCC2)n(C)c(=O)c(=O)n3C)cc1,-18%
20,Cn1cc([N+](=O)[O-])c(C(=O)N/N=C\c2c[nH]c3ccccc23)n1,-9.91%
21,COc1ccc(CNC(=O)CN(C)S(=O)(=O)c2ccccc2)cc1,8.51%
